Measurements published in PubChem BioAssay AID1030 (National Center for Advancing Translational Sciences (NCATS), 2008).
Among all 220,000 compounds or so, about 16,000 (7.3%) were called active. Inconclusive results, whose numbers are uncertain, are shown with a selection of clear calls. The call rests on the fitted dose curve; in most records, active means well fitted inhibition curve with a large enough effect (not every such curve was filed as active); inconclusive means small, poorly fitted or top-dose-only effect, or another doubt; inactive means no such curve, though single readings can be large or run the other way. Potencies of inconclusive entries are left out as doubtful fits.

target: Aldehyde dehydrogenase 1A1 (Homo sapiens) (UniProt P00352); experiment: qHTS Assay for Inhibitors of Aldehyde Dehydrogenase 1 (ALDH1A1); conditions: Purified ALDH1A1, NADH fluorescence, propionaldehyde substrate; series mostly up to 75.3 µM; activity, negative = inhibition: at the top concentration;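 on activity, negative = inhibition: plate controls were no enzyme wells and a reference inhibitor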
Potency means the concentration at half of the fitted maximal effect; tags describe the fitted curve by direction and shape.

UniProt P00352, sequence (P00352 whole entry, looked up): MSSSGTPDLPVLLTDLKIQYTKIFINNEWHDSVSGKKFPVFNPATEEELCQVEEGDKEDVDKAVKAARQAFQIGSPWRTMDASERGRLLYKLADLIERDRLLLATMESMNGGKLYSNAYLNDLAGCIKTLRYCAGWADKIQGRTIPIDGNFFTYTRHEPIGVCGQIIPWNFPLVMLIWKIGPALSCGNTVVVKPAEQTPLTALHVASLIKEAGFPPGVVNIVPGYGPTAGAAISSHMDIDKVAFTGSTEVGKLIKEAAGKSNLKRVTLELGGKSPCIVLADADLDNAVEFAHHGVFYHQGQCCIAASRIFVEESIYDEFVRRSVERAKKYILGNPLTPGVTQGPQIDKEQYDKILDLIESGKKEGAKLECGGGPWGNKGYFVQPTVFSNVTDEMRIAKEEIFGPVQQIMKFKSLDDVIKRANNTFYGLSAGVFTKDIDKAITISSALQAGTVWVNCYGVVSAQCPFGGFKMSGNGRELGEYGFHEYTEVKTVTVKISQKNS

Row | SMILES | Potency | activity, negative = inhibition
1 | COCCCNCC(O)COc1ccccc1F (stereo unspecified) | inconclusive [inhibitor, single point] | –
2 | Cc1c(C(=O)N2CCN(c3cccc(Cl)c3)CC2)cccc1[N+](=O)[O-] | inconclusive [inhibitor, single point] | –
3 | Cc1ccccc1OCC(=O)N1CCCc2ccccc21 | inconclusive [inhibitor, partial curve] | –
4 | COC(=O)c1ccc(N(C(=O)CNC(=O)c2ccco2)C(C(=O)NC2CCCC2)c2ccco2)cc1 (stereo unspecified) | – | inactive: 0.891%
5 | O=[N+]([O-])c1ccc(-c2nc(=S)c3c(o2)CCCC3)cc1 | inconclusive [inhibitor, single point] | –
6 | Cc1csc(NC(=O)CSc2nc(C)cs2)n1 | – | inactive: 5.8%
7 | CC(NC(=O)c1ccc(N(C)C)cc1)C(c1cccs1)N1CCN(C)CC1 (stereo unspecified) | – | inactive: 3.47%
8 | COc1ccc(/C=C/c2nc(C)c(-c3ccccc3)c(=O)[nH]2)cc1OC | inconclusive [inhibitor, full curve, poor fit] | –
9 | COc1ccc2c(c1)oc(=O)c1cc(OC)ccc12 | inconclusive [inhibitor, full curve] | –
10 | COC(=O)c1ccc(COn2nnc3ccccc32)cc1 | – | inactive: -11.3%
11 | CC(C)c1nc2sc3c(=O)n(N)cnc3c2c2c1COC(C)(C)C2 | inconclusive [inhibitor, full curve] | –
12 | COc1ccc(C(=O)NC(=S)Nc2ccc3c4c(cccc24)CC3)cc1OC | active: 12.6 µM | –
13 | C=CCNC(=O)C1CCN(c2ccc(S(=O)(=O)N3CCOCC3)cc2[N+](=O)[O-])CC1 | – | inactive: 3.57%
14 | CC(=O)c1cnc2nc(C(F)(F)F)nn2c1C | inconclusive [inhibitor, single point] | –
15 | COc1cc(C)c2c(c1C=O)Oc1c(c(C)c(O)c3c1C(O)OC3=O)OC2=O (stereo unspecified) | inactive | –
16 | Cn1c2ccccc2c2c(C(=O)NCCCN3CCCC3=O)cn(C3CCCCC3)c(=O)c21 | inconclusive [inhibitor, partial curve] | –
17 | O=c1c(-c2ccc(Cl)cc2)nc2cnc(N3CCOCC3)nc2n1CCc1ccccc1 | inconclusive [inhibitor, partial curve] | –
18 | Cc1ccc2cc(CN(C(=O)c3ccncc3)C(C)C)c(=O)[nH]c2c1 | inconclusive [inhibitor, single point] | –
19 | O=[N+]([O-])c1cccc(/C=N/NS(=O)(=O)c2ccccc2)c1 | inconclusive [inhibitor, partial curve] | –
20 | CCN(CC)c1nc(N)c2c(N)n(-c3ccccc3C)c(=S)c(C#N)c2c1C#N | inconclusive [inhibitor, partial curve, poor fit] | –
21 | CCCc1cc(C(N)=O)c(NC(=O)c2cc(C)on2)s1 | inconclusive [inhibitor, single point] | –
22 | O=C(CSCC(=O)N1CCCCC1)Nc1nc(-c2ccc(Cl)s2)cs1 | active: 25.1 µM | –
23 | COc1ccc(Br)cc1C(=O)NC(=S)Nc1cc(-c2nc3ccccc3[nH]2)ccc1C | active: 12.6 µM | –

Row | SMILES | Potency | activity, negative = inhibition
24 | Cc1ccccc1C(=O)NC(=S)Nc1ccc(S(=O)(=O)N(C)c2ccccc2)cc1 | active: 17.8 µM | –
25 | O=c1c(=Nc2ccccc2O)c(=O)c2ccccc12 | active: 22.4 µM | –
26 | COc1cc2c(cc1NC(=O)C1CCCO1)oc1ccccc12 (stereo unspecified) | inconclusive [inhibitor, single point] | –
27 | Cc1nn(CC(=O)NCc2cccnc2)c(C)c1[N+](=O)[O-] | – | inactive: 5.98%
28 | COc1ccc(CC(=O)NC(CC(=O)O)c2ccc(OC)cc2)cc1 (stereo unspecified) | inconclusive [inhibitor, single point] | –
29 | CCOC(=O)c1cc(-c2ccccc2)n(CC(=O)Nc2cc(OC)cc(OC)c2)c1C | inconclusive [inhibitor, single point] | –
30 | CC1=C(C(=O)OCCOc2ccccc2)C(c2coc3ccccc3c2=O)C2=C(CCCC2=O)N1 (stereo unspecified) | inconclusive [inhibitor, single point] | –
31 | CCC(=O)N(CCC(c1ccco1)C(C)C)Cc1ccccc1 (stereo unspecified) | inconclusive [inhibitor, partial curve] | –
32 | CCCOc1ccc(NC(=O)CC2C(=O)N(C)C(=S)N2Cc2ccc3c(c2)OCO3)cc1 (stereo unspecified) | – | inactive: 4.02%
33 | COc1cc2oc(=O)cc(C)c2c(OC)c1OC | inconclusive [inhibitor, single point] | –
34 | COc1ccc(N2C(=O)CSC2c2ccc3c(c2)OCO3)cc1 (stereo unspecified) | inconclusive [inhibitor, single point] | –
35 | O=C(CC1COc2ccccc2O1)NCc1ccccc1 (stereo unspecified) | – | inactive: -6.19%
36 | CNc1ccc(Br)cc(C(=O)/C=C/c2ccc(Cl)cc2Cl)c1=O | inconclusive [inhibitor, partial curve, poor fit] | –
37 | CCC(C)NC(=O)c1cnn2c(C)c3c(nc12)CCCC3 (stereo unspecified) | inconclusive [inhibitor, partial curve] | –
38 | Cc1ccc2c(c1)sc(C)[n+]2CCCS(=O)(=O)[O-] | inconclusive [inhibitor, single point] | –
39 | Cc1ccsc1/C=N/n1c(-c2ccco2)n[nH]c1=S | active: 14.1 µM | –
40 | CCCC(=O)Nc1ccc(-c2nc3cc(C)ccc3o2)cc1 | inconclusive [inhibitor, full curve] | –
41 | Cc1cccc(NC(=O)C2CC(=O)N/C(=N/N=C/c3ccco3)S2)c1 (stereo unspecified) | – | inactive: 7.8%
42 | COc1cc2cc(CN(Cc3cccs3)C(=S)Nc3ccc(C)cc3)c(=O)[nH]c2cc1OC | inconclusive [inhibitor, partial curve] | –
43 | N[C@H](Cc1cnc[nH]1)C(=O)O | inactive | –
44 | CC1CCN(c2ccc(/C=N\Nc3nncn3N)cc2[N+](=O)[O-])CC1 | inconclusive [inhibitor, partial curve] | –
45 | CCCOc1ccc(-c2nn(-c3ccccc3)cc2/C=C2\SC(N)=NC2=O)cc1 | – | inactive: 11.8%
46 | Cc1[nH]c2ccccc2c1C(=O)CSCC(=O)O | inconclusive [inhibitor, single point] | –
